In PubChem BioAssay AID651813 (National Center for Advancing Translational Sciences (NCATS), 2012):
About 1,100 (52%) of roughly 2,100 compounds were called active. The set was probably picked from earlier hits. This list was built around the results that the source calls inconclusive (neither active nor inactive); the mix of calls is not that of the screen. Calls follow the shape of the dose curve; as a rule, active = well fitted inhibition curve with a large enough effect; inconclusive = small, poorly fitted or top-dose-only effect; inactive = no such curve, though single readings can be large or run the other way. Potencies of inconclusive entries are left out as doubtful fits.
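Also: hits raise yellow fluorescence by blocking Vif-driven A3G-eYFP degradation; nearly all actives have a fitted effect of over 70% in size.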
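For max response in this document: max response given as percent of control signal.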
Potency is read from the fitted curve at half-maximal effect; tags tell the direction and shape of the fitted curve.

These compounds were tested against DNA dC->dU-editing enzyme APOBEC-3G (Homo sapiens) (UniProt Q9HC16) (assay: qHTS for inhibitors of Vif-A3G interactions: Cherry picks counterscreen). Details: HeLa A3G-eYFP + Vif (tagged APOBEC3G with the HIV-1 protein that degrades it), eYFP fluorescence, 24 h.
Chain of UniProt Q9HC16 (Q9HC16 whole entry, looked up): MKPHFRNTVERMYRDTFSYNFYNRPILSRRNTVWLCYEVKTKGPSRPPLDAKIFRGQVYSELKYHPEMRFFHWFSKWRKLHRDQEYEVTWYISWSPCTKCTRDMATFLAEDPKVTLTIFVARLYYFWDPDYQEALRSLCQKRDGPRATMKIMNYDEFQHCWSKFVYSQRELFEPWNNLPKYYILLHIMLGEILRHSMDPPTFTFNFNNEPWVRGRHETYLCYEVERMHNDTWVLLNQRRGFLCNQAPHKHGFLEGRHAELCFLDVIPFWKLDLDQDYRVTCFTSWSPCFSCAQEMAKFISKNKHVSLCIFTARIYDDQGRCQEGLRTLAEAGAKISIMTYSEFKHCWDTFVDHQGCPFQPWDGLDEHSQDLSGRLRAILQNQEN
How it was run: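 HeLa cells stably expressing A3G-eYFP and Vif were treated for 24 h at 37 deg C with compounds at several concentrations; yellow fluorescence (Ex 488 nm, Em 500-530 nm) read by Acumen Explorer, MG132 as positive control.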
For `COc1cc2ccccc2cc1C(=O)N/N=C/c1cccs1`, the Potency was active: 1.77 µM. In the case of `COc1cc(/C=C/c2ccnc3ccccc23)ccc1N(C)C`, the Potency is reported as active: 18.4 µM. For `CCOc1cc(/C=C(\C#N)c2nc(-c3cccs3)c(NC(C)=O)s2)ccc1O`, the max response was inactive: 51.1%. In the case of `COC(=O)c1nnn(-c2nonc2N)c1CN1CCc2ccccc21`, the Potency is reported as inconclusive [inhibitor, single point]. With `Cc1c(=O)n(OCc2ccc(Cl)cc2)c2ccccc2[n+]1[O-]` the max response was inactive: -2.47%. In the case of `O=C(Nc1nc(-c2ccccn2)cs1)C1CCCC1`, the max response is reported as inactive: -16.3%. For `Cc1cc(NC(=O)Nc2nnc(N(C)Cc3ccccc3)s2)ccc1Br`, the max response was inactive: 20.9%. `Cc1ccc2nc(NC(=O)CN(C)S(=O)(=O)c3cccc4nsnc34)sc2c1` was tested, and the Potency was inconclusive [inhibitor, single point]. In the case of `OCCCn1c(C2CCCN2c2nc(-c3ccc(Cl)cc3)cs2)nc2cc(Cl)c(Cl)cc21` (stereo unspecified), the Potency is reported as inconclusive [inhibitor, full curve, poor fit]. With `COc1cc(-c2nc3ccc(C)cn3c2NCc2ccccc2)ccc1SC1CCCCC1` the max response was inactive: 34.4%. For `COc1cc(/C=C2\SC(=S)N(NC(=O)c3ccccc3O)C2=O)ccc1O`, the Potency was inconclusive [inhibitor, single point]. For `COc1cc(/C=C/C(C)=NNc2ccccc2)ccc1O`, the Potency was inconclusive [inhibitor, single point]. In the case of `COc1ccc2c(c1)c1nc3ccccc3nc1n2CC(=O)OC(C)C`, the max response is reported as inactive: -18.3%. `Cc1ccccc1NCC(=O)N=Nc1c(O)[nH]c2ccc([N+](=O)[O-])cc12` was tested, and the max response was inactive: -0.0304%. In the case of `CCCSc1ncc(Cl)c(C(=O)Nc2sc3c(c2C(N)=O)CCCC3)n1`, the Potency is reported as inconclusive [inhibitor, partial curve]. `CCOC1=C/C(=C/c2c(N)n3nc(-c4ccccc4)sc3nc2=O)C=CC1=O` was tested, and the max response was inactive: 19.6%. `COc1ccc2nc(NC(=O)c3ccc([N+](=O)[O-])o3)sc2c1` was tested, and the Potency was inconclusive [inhibitor, single point]. With `CCCN1C(=O)C(Cc2nc3ccccc3c(=O)n2CC)c2cc(Br)ccc21` (stereo unspecified) the max response was inactive: 11.6%. `Cc1cc(NC(=O)/C(C#N)=C/c2ccc(-c3ccc(SC(F)F)cc3)o2)n(-c2ccccc2)n1` was tested, and the Potency was active: 4.61 µM. In the case of `O=C1/C(=C\c2ccc(O)c(O)c2)SC(=S)N1Cc1ccccc1`, the Potency is reported as inconclusive [inhibitor, partial curve]. In the case of `O=C(O)CSc1c2ccccc2cc2ccccc12`, the max response is reported as inactive: -3.73%.
